# According to PubChem BioAssay AID485367 (National Center for Advancing Translational Sciences (NCATS), 2010):
# Screen size: about 330,000 compounds; about 560 (0.17%) were called active. Inconclusive results, whose numbers are uncertain, are shown with a selection of clear calls. Calls follow the shape of the dose curve; as a rule, active = well fitted inhibition curve with a large enough effect; inconclusive = small, poorly fitted or top-dose-only effect, or effect the other way; inactive = flat fitted curve, though single readings scatter. Potencies of inconclusive entries are left out as doubtful fits.
# Molecular target: ATP-dependent 6-phosphofructokinase (Trypanosoma brucei brucei) (UniProt O15648)
# UniProt O15648, sequence (O15648 whole entry, looked up): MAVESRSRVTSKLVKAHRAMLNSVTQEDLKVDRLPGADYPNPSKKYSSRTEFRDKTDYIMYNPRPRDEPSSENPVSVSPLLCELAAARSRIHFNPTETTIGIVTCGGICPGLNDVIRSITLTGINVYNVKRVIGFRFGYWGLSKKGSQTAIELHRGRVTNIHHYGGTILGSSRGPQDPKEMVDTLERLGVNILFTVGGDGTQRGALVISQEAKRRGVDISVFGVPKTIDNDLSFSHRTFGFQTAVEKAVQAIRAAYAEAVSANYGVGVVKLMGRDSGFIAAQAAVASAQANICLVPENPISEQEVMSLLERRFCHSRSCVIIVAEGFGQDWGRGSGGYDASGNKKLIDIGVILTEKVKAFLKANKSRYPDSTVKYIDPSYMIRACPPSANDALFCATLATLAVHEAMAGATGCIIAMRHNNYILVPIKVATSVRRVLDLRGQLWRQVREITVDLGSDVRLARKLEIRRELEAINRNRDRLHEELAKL
# Assay: qHTS Assay to Find Inhibitors of T. brucei phosphofructokinase; also: nearly all actives have a fitted effect of over 60% in size
# Settings: T. brucei PFK, ADP-Glo luminescence; series mostly up to 57.5 µM
# Procedure, shortened: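 ADP-Glo luminescence quantified ADP after 45 min at room temperature, with 1.25 nM T. brucei PFK, 0.1 mM ATP and 0.5 mM fructose-6-phosphate in pH 8.0 TEA buffer. qHTS titrations up to 57 µM; curves classified by quality.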
# Potency is read from the fitted curve at half-maximal effect; tags tell the direction and shape of the fitted curve.
row,Compound,Potency
1,CCOC(=O)N1CCN(C(=O)c2ccc3c(=O)n(Cc4ccc(Cl)cc4)c(=S)[nH]c3c2)CC1,inactive
2,COc1cccc(-n2nnc3c(=O)n(CC(=O)NCC4CCCO4)cnc32)c1 (stereo unspecified),inactive
3,O=C(C1=C(Nc2ccccc2)c2ccccc2S(=O)(=O)N1)c1ccccc1,"inconclusive [falling, single point]"
4,Cc1nc(SCC(=O)c2ccc(F)cc2)n[nH]1,active: 21.3 µM
5,Cc1cc(C)n2nc(C(=O)Nc3c(C)nn(Cc4ccc(F)cc4)c3C)cc2n1,"inconclusive [falling, single point]"
6,CC1CCC(NC(=O)Cn2ncc3ccccc32)CC1 (stereo unspecified),"inconclusive [falling, single point]"
7,O=C(Nc1ccc(S(=O)(=O)Nc2ncccn2)cc1)c1cnc(Cl)c(Cl)c1,inactive
8,COC(=O)c1cc(S(=O)(=O)Nc2c(C)cccc2C)cn1C,"inconclusive [falling, single point]"
9,Cc1cc(C(=O)NCc2ccco2)c2ccccc2n1,inactive
10,CC(Cc1n[nH]c(=S)n1N)c1ccccc1 (stereo unspecified),"inconclusive [falling, full curve, poor fit]"
11,O=C(Nc1ccc2c(c1)CCC2)C1COc2ccccc2O1 (stereo unspecified),"inconclusive [falling, partial curve, poor fit]"
12,Cc1cc(C)c2c(=O)n(CC(=O)Nc3ccc(Br)c(C)c3)sc2n1,active: 13.5 µM
13,CC(C)CN(C(=O)COC(=O)COc1ccc2ccccc2c1)c1c(N)n(Cc2ccccc2)c(=O)[nH]c1=O,inactive
14,S=C(NCCCN1CCOCC1)NCCCN1CCOCC1,"inconclusive [falling, partial curve]"
15,COc1cc2c(cc1OC)CN(Cc1nc3ccsc3c(=O)[nH]1)CC2,"inconclusive [falling, single point]"
16,CSc1ccc(NC(=O)Nc2ccc(C(=O)NCC(=O)O)cc2)cc1,active: 13.5 µM
17,O=C(NCc1cccnc1)c1ccc(CN2CCc3ccccc3C2)cc1,"inconclusive [falling, single point]"
18,O=C(COC(=O)c1ccc(S(=O)(=O)N2CCCC2)cc1)NCc1ccco1,"inconclusive [falling, single point]"
19,Nc1nonc1-n1nnc(C(=O)N/N=C/c2ccccc2F)c1-c1cccs1,inactive
20,O=C1NN(c2ccccc2)C(=O)/C1=C/c1cccs1,inactive
21,CCOC(=O)Cc1csc(NC(=O)Cc2cccs2)n1,"inconclusive [falling, single point]"
